Results as given in the RNAGym collection of RNA variant scans (doi:10.7554/elife.90254).
Read counts are not given, so values of variants with three or more changes are uncertain.

B1: LINE1-mini (parent)
chain: GGCAGAGCUCAACACAGCGUGGCAAAGUGGCUGUGGCUAGACUGCC

Variants of: B1
Assay: self-cleavage, relative activity (ratio to wild type); higher = more cleavage; in vitro, sequencing; the parent is a self-cleaving ribozyme
A16U C18U C45A showed a self-cleavage of 0.02.
In the case of G7C C23A G40C U43G C45G, the self-cleavage is reported as 0.03.
C13G U32C A39U C42U showed a self-cleavage of 0.05.
G30C G35C C37G gave a self-cleavage of 0.11.
U20A U38A G40U C46U showed a self-cleavage of 0.03.
Work on A12U G17U C31U U32G G44U C45A yielded a self-cleavage of 0.01.
For G2C G17U G27C G33C U34A, the self-cleavage was 0.02.
U20C G22C A24U gave a self-cleavage of 0.19.
For A4C C10U C13U G21U C23U A24G U32C, the self-cleavage was 0.02.
Variant G1U C3G A24U has a self-cleavage of 0.04.
For C3A G17U C18G G21U, the self-cleavage was 0.07.
G1U C10G G27C U28C gave a self-cleavage of 0.04.
Variant G2A G21U G40C has a self-cleavage of 0.51.
Variant C3G G7U A24C C31U G44U has a self-cleavage of 0.03.
Work on G2U A14G G19A G29C yielded a self-cleavage of 0.32.
For U34C A39C G44A, the self-cleavage was 0.2.
Work on G5U G7A U38C yielded a self-cleavage of 0.8.
In the case of U20A U32C U38A, the self-cleavage is reported as 0.09.
With C18U G19U G21C the self-cleavage was 0.51.
For A6G G7A A41U C46A, the self-cleavage was 0.07.
In the case of U9C C18U U43A, the self-cleavage is reported as 0.05.
C8G G27A G40C U43G gave a self-cleavage of 0.01.
C23G A26U U28G C31U G36U gave a self-cleavage of 0.01.
Work on G17U G22A A24C C31U A39C G40U yielded a self-cleavage of 0.01.
Variant G7A G17C C18A A25C G33C has a self-cleavage of 0.01.
In the case of C13G C18G G22U U38C G40A, the self-cleavage is reported as 0.12.
In the case of A12G G21C C45G, the self-cleavage is reported as 0.01.
For C3U A12U U38C, the self-cleavage was 0.17.
With G7A A14C A41G the self-cleavage was 0.13.
In the case of A4U G5A G17U G33A C37U U38A, the self-cleavage is reported as 0.05.
C15G C18U C45A showed a self-cleavage of 0.02.
With C3A A11U C13A U20A the self-cleavage was 0.06.
For C15G G35U U38C A41U, the self-cleavage was 0.04.
With A26C C37U C46G the self-cleavage was 0.07.
With A11U G19C A39C the self-cleavage was 0.02.
In the case of C18U A26C U34C, the self-cleavage is reported as 0.05.
C18A G29U G30A C42G showed a self-cleavage of 0.29.
With G29A C37A G40C the self-cleavage was 0.03.
In the case of A12G C18U A26U G33A, the self-cleavage is reported as 0.16.
In the case of G5U C10A G19A U20A C31A, the self-cleavage is reported as 0.03.
For G5A C15A A24C U32C U34G, the self-cleavage was 0.02.
In the case of C8A G17U G29C A39G, the self-cleavage is reported as 0.02.
A11U G44C C46U gave a self-cleavage of 0.07.
With A11C C13G C15A the self-cleavage was 0.01.
Work on A4U C10U G19A U20C C23U C31U yielded a self-cleavage of 0.07.
With G35U G44A C46U the self-cleavage was 0.
Work on A12G G19C A24U G33A C37A yielded a self-cleavage of 0.03.
Work on A6G C42G C45A yielded a self-cleavage of 0.
With G1C C18U A25U the self-cleavage was 0.1.
Variant G21U G36A G44U C46U has a self-cleavage of 0.06.
A11G C15U A25U showed a self-cleavage of 0.03.
Variant A12G C13G C18U has a self-cleavage of 0.01.
In the case of A14C A16U G29C G36U G40U C45U, the self-cleavage is reported as 0.03.
In the case of G7A C37A G44A, the self-cleavage is reported as 0.07.
Work on C10G U20A G21C yielded a self-cleavage of 0.02.
Work on G1A A4C A14C U28A yielded a self-cleavage of 0.03.
With U32G A41C U43C G44C the self-cleavage was 0.05.
Work on A6C A16G C31G C37U U38G G40C yielded a self-cleavage of 0.01.
Work on A4C G21A A25G G44C yielded a self-cleavage of 0.12.
A4G G7C G17U A25G G44C gave a self-cleavage of 0.02.
For A4G C13U U28G U38G C46U, the self-cleavage was 0.01.
Variant C10A G22A C23A G29U C46A has a self-cleavage of 0.01.
Variant G1U G27U G35U has a self-cleavage of 0.16.
A4C C10A G30U gave a self-cleavage of 0.03.
In the case of G5A U28G G33A, the self-cleavage is reported as 0.41.
In the case of G5U A16G C23G, the self-cleavage is reported as 0.01.
Variant G7U G30C C31U has a self-cleavage of 0.07.
Variant U9A U20A A39G has a self-cleavage of 0.
For G2U C23G C42G, the self-cleavage was 0.08.
C23U G33C A41G showed a self-cleavage of 0.04.
With C10G G19C A24G G30U the self-cleavage was 0.01.
C18A A24U G30C showed a self-cleavage of 0.37.
G1A C3G G36U U38G showed a self-cleavage of 0.49.
With A16G A24G A25U C46A the self-cleavage was 0.05.
With A12C A16C C23U the self-cleavage was 0.07.
Work on A6C G27C C42A yielded a self-cleavage of 0.12.
In the case of U20A C42A U43G, the self-cleavage is reported as 0.1.
Variant G35C C37U C42A has a self-cleavage of 0.02.
G2U U28G G36A C42U showed a self-cleavage of 0.02.
G2U C10U A14C C42A gave a self-cleavage of 0.02.
With G1U A14U U32G G33C C42G the self-cleavage was 0.03.
Variant A11C G22C G27C U28A G30C A41C has a self-cleavage of 0.01.
Work on C10U C31U C42G G44U yielded a self-cleavage of 0.06.
Variant A16G G36C C37U C45U has a self-cleavage of 0.05.
A4U G22A U28G gave a self-cleavage of 0.3.
G27C U28C G35U A41C U43A gave a self-cleavage of 0.02.
For G1U A6G G7U A11U A16C U43G, the self-cleavage was 0.
Work on C15U U38C C42A C46U yielded a self-cleavage of 0.11.
C3U A11C A14G C15A C31U C45G showed a self-cleavage of 0.
Variant A12C A16U A24G G35A has a self-cleavage of 0.
In the case of A6U A25C U32A G35A G36A A41U, the self-cleavage is reported as 0.06.
Work on U9C C18A U38G yielded a self-cleavage of 0.02.
Work on G1A C18A A26G yielded a self-cleavage of 0.07.
G17A G19U A25U G29C showed a self-cleavage of 0.08.
In the case of G33A G36U A39U, the self-cleavage is reported as 0.
A11C A39U G40A showed a self-cleavage of 0.
Variant U9A C15G U20G G35U A39U has a self-cleavage of 0.12.
In the case of G1C U9A A11U C23G G27U, the self-cleavage is reported as 0.
Work on C10A A14G G30C yielded a self-cleavage of 0.
Variant G17U G44C C45U has a self-cleavage of 0.09.
Work on C13A G27U U38C yielded a self-cleavage of 0.52.
With G2U C15A U20C the self-cleavage was 0.04.
A6G A12C A14C C15U C42U gave a self-cleavage of 0.06.
For U9A C15G U28G G33A C37A A39U U43G, the self-cleavage was 0.08.
C10A U34A A41U gave a self-cleavage of 0.02.
G1U A26C G29C G33C gave a self-cleavage of 0.01.
Variant C13U A25U U43C has a self-cleavage of 0.03.
For C3G G7U A26C G33A, the self-cleavage was 0.08.
Work on G21U G29C C46G yielded a self-cleavage of 0.41.
Work on C10U A12G C13G G33U C45A yielded a self-cleavage of 0.03.
C10G C13U A39U showed a self-cleavage of 0.02.
Variant C10U C15G G35U C42U G44C has a self-cleavage of 0.03.
Work on C8U A11U C31U yielded a self-cleavage of 0.02.
For C8U C13U C37G C46U, the self-cleavage was 0.26.
Work on A14C A26U C46A yielded a self-cleavage of 0.04.
G2A C15U A25G A26U U32G gave a self-cleavage of 0.07.
In the case of G5A C10G A12U A39C C42A C46G, the self-cleavage is reported as 0.02.
Work on C10U G22A G33C yielded a self-cleavage of 0.03.
G35C G36C C46G gave a self-cleavage of 0.02.
In the case of A4C G5U C18A C23G C31U G35A A39C C46U, the self-cleavage is reported as 0.11.
G7C C10G C18A C31U U32G showed a self-cleavage of 0.01.
For G2U G7C G30A, the self-cleavage was 0.06.
A6G C18U A26C G36U gave a self-cleavage of 0.28.
Variant A6U U9C A26C has a self-cleavage of 0.03.
For C13G U28G U43C, the self-cleavage was 0.08.
A14G C23U G27C showed a self-cleavage of 0.11.
In the case of A6U A26G G40U, the self-cleavage is reported as 0.29.
For G36C U38G C45A C46A, the self-cleavage was 0.
G2A C8A C23U C31U showed a self-cleavage of 1.14.
With C18G G21U G30C G35U the self-cleavage was 0.04.
C3G C13U C18U G35C showed a self-cleavage of 0.03.
G2U A11G A39G gave a self-cleavage of 0.01.
A4C C15G C45A showed a self-cleavage of 0.02.
Variant A11G A26C G27A A39G G40U G44A has a self-cleavage of 0.01.
For C10A A26C G33C, the self-cleavage was 0.02.
For G7C A14U G21C A39U, the self-cleavage was 0.07.
In the case of A4G G7A G30C G33C, the self-cleavage is reported as 0.11.
Work on G7A U28C C37G U38G yielded a self-cleavage of 0.
With G1C A6C U38C the self-cleavage was 0.01.
A6G C13U G33A U38C G40U showed a self-cleavage of 0.05.
Work on U9A U20C C37U yielded a self-cleavage of 0.11.
In the case of G17A G22C C31U, the self-cleavage is reported as 0.14.
With G2U U9G G17U G29A the self-cleavage was 0.
Work on C3U A4C C37U yielded a self-cleavage of 0.1.
Work on C8G A12C C13G A14U yielded a self-cleavage of 0.03.
For C3A G5A U9G, the self-cleavage was 0.7.
Work on G2C C15U G17A G27U U28C yielded a self-cleavage of 0.15.
C10G G27U G40C U43A showed a self-cleavage of 0.
Variant U9C C13A A25C U34A has a self-cleavage of 0.01.
For G19A G22U A26C, the self-cleavage was 1.99.
With A6C C8U C13U A14C G19U U43G C45G the self-cleavage was 0.01.
In the case of G29U G36C C45G, the self-cleavage is reported as 0.05.
In the case of G5A C10A C18U G21U C23U, the self-cleavage is reported as 0.04.
For C3A A4C A25C A41G, the self-cleavage was 0.13.
In the case of C8U U9C U20G C31G G33U U34C, the self-cleavage is reported as 0.02.
With A4C A11G G17U C31A the self-cleavage was 0.01.
G35U C37A G40A showed a self-cleavage of 0.05.
C3A A14C U43C C45A gave a self-cleavage of 0.23.
For C3U G29U C45G, the self-cleavage was 0.02.
A16G G19U C46A showed a self-cleavage of 0.18.
G2A C8A C13U U38G showed a self-cleavage of 0.04.
Work on C15A G30U G36U yielded a self-cleavage of 0.15.
For A25G G29C C37G G44C, the self-cleavage was 0.01.
G27A U43A C46A showed a self-cleavage of 0.
In the case of G17C G19U G36C, the self-cleavage is reported as 0.03.
C10G A11U G30U U34G G44A gave a self-cleavage of 0.02.
G7A C13U G33A gave a self-cleavage of 0.12.
